In PubChem BioAssay AID1346428 (National Center for Advancing Translational Sciences (NCATS), 2018):
About 1,200 (2.5%) of roughly 48,000 compounds were called active. Not shown: some 2% with an inconclusive outcome.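 The calls were made as follows: active = activation of at least 60% and not above a set upper limit (about 1 call in 100 departs from these limits); inconclusive = activation of 40% to 60%, or above that upper limit; inactive = activation under 40%.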 The list shows a part of the results.

These molecules were tested against Probable G-protein coupled receptor 32 (Homo sapiens) (UniProt O75388) (assay: qHTS for Agonists of Human Resolvin D1 Receptor DRV1). Conditions: CHO-K1 GPR32 beta-arrestin PathHunter luminescence, 90 min; at 76.9 µM; hits give high values; zero percent set by DMSO-only wells.
Procedure, shortened: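 Agonism was scored by beta-Gal fragment complementation (chemiluminescent read, 1 h detection at ambient temperature) reporting beta-arrestin binding to GPR32 in engineered CHO-K1 cells. Compound treatment lasted 90 min at 37 C, normalized to a DMSO basal control.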
Also: 0% is about no effect.

Sequence of UniProt O75388 (O75388 whole entry, looked up, the tested form may be a part): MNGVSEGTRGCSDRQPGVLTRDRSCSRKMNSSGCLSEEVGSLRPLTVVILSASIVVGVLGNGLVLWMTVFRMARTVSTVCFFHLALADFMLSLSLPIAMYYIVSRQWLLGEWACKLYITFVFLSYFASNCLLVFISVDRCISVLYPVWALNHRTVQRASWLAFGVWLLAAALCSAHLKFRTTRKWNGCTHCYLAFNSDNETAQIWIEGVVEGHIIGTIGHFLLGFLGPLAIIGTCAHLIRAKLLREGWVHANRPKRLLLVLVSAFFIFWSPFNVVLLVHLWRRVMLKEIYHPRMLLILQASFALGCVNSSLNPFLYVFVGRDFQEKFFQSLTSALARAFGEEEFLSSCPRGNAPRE

activation, inactive:
O=C(NCc1ccc(Cl)cc1)C1CCN(C(=O)c2cnn(-c3ccccc3)c2-n2cccc2)CC1 -2.49%
COc1ccccc1CNC(=O)CSc1nc2nc(C)c(Cc3ccccc3C)c(C)n2n1 -9.02%
Cc1ccc(C(=O)Nc2c(C)nc3ccccn3c2=O)cc1 -3.53%
Cc1ccc(C)c(N2CCN(C(=O)CCc3c(C)nn(-c4ccc(N5CCCC5)nn4)c3C)CC2)c1 -11.4%
Oc1c(C(c2cccc(Br)c2)N2CCCC2)sc2nc(-c3ccco3)nn12 (centres undefined) 37.7%
O=C(CCCCCn1c(=O)[nH]c2ccsc2c1=O)NCc1ccccc1 -16.4%
Cc1ccc(-c2nc(CCNC(=O)C(=O)Nc3ccc(C)c(Cl)c3)cs2)cc1 -3.23%
CCCOc1ccc(CNC(=O)CCCN2C(=O)CSc3c2c(C)nn3-c2ccccc2)cc1 13%
CCOC(=O)c1sc(NC(=O)c2nc3nc(C)cc(C(F)F)n3n2)c(C(=O)OC(C)C)c1C -7.41%
COc1ccccc1C(=O)Nc1ccccc1C(=O)OCc1cc(=O)n2ccsc2n1 -1.26%
COc1ccc(C2(N3CCN(c4cc(C)ccc4C)CC3)C(=O)c3ccccc3C2=O)cc1 -16%
CCOc1ccccc1NC(=O)CSc1nc2cc(OC)c(OC)cc2c2nc(CCn3c(C)nc4ccccc43)nn12 1.54%
CCCN(CCC)C(=O)Cn1c(SCc2cccc(F)c2)nc2cccnc21 -18.1%
N#Cc1cccc(NC(=O)C2CCN(S(=O)(=O)c3ccc4c(c3)CCCN4C(=O)C3CCC3)CC2)c1 -8.04%
CC(C)(C)NC(=O)[C@@H]1CN(Cc2cccnc2)CCN1C[C@@H](O)C[C@@H](Cc1ccccc1)C(=O)N[C@H]1c2ccccc2C[C@H]1O -1.87%
Cc1ccc2oc(C(=O)NCC(c3ccc(Cl)cc3)N3CCOCC3)c(C)c2c1 (centres undefined) -27.8%
Cc1nc(-c2ccc(F)cc2)sc1CCNC(=O)c1ccccc1C(F)(F)F 29.4%
Cc1ccc(CNC(=O)c2cc3c(=O)n4cccc(C)c4nc3s2)cc1 6.16%
COc1ccccc1NC(=O)CN1C(=O)C(C)(C)c2ccccc21 11.8%
Cc1ccc(CNC(=O)CN2C(=O)C3CCCCN3c3ccc(C(=O)N(C)C)cc32)cc1 (centres undefined) -22.2%
Cc1cccc(CSc2ncc(Cl)c(C(=O)Nc3nnc(C)s3)n2)c1 -12%
Cc1ccc(S(N)(=O)=O)cc1NC(=O)c1c(-c2c(Cl)cccc2Cl)noc1C -15%
O=C(O)c1ccccc1Nc1cccc(OCc2ccc3ccccc3n2)c1 12.4%
CC1=C(C(=O)Nc2ccccc2C)C(c2sccc2C)n2ncnc2N1 (centres undefined) 17.3%
CN1CCC(N(Cc2cccs2)c2ccccc2)CC1 10.4%
O=C(Nc1nnc(N2CCCC2)s1)Nc1cc(F)ccc1F -2.7%
COc1ccc(NC(=O)CCn2nc(-c3ccc(Cl)cc3)c3ccccc3c2=O)cc1 10.4%
Cc1oc(-c2cccc(Cl)c2)nc1CN1CCC(C(=O)NCc2ccc(F)cc2)CC1 -2.55%
O=C(NCCc1ccccc1)c1c2c(nc3ccccc13)C(=O)N(C1CCCCC1)C2 -21.2%
COc1cccc(NC(=O)Cc2ccc(NC(=O)N3CCCCc4ccccc43)cc2)c1 17.1%
CCCN1C(=O)c2[nH]nc(-c3ccc(F)cc3)c2C1c1ccc(O)c(OCC)c1 (centres undefined) -20.1%
Nc1ccc(N)c([N+](=O)[O-])c1 -103%
O=C(COCCOCCOCC(=O)Nc1c(I)cc(I)c(C(=O)O)c1I)Nc1c(I)cc(I)c(C(=O)O)c1I -44.1%
C=CCOc1cc(Cl)ccc1C(=O)NCCN(CC)CC -14.8%
Cc1cccc(-c2nc3c4ccccc4n(CC(=O)Nc4cc(F)ccc4F)c(=O)n3n2)c1 -4.98%
Cc1ccc(N2C(=O)CSC23C(=O)Nc2ccccc23)cc1F (centres undefined) 3.51%
CCOC(=O)c1c(-c2ccccc2)oc2ccc(OCc3ccc(C)cc3)cc12 -21.5%
Cc1ccccc1Cn1c(=O)n(CCCCC(=O)NCc2ccc3c(c2)OCO3)c(=O)c2ccccc21 -1.7%
Cc1cc2c(n1-c1ccc(C(=O)NCc3cccc(Br)c3)cc1)CCC(C)C2 (centres undefined) -16.2%
CCOc1ccc(C(=O)Nc2c(C)nc(Nc3ccccc3)nc2Nc2ccccc2)cc1OCC -4.84%
COc1ccc(S(=O)(=O)Nc2c(C)n(C)n(-c3ccccc3)c2=O)cc1Br -12.2%
COc1ccc(C(=O)Cn2c(=O)n3nc(CCn4nc(C)cc4C)nc3c3cc(OC)c(OC)cc32)cc1 1.82%
CC(C)Nc1cc(N2CCN(C3CCCCC3)CC2)c2noc3c2c1C(=O)c1ccccc1-3 -5.35%
COc1ccc(CCNc2nc(-c3ccccc3OC)cc(C(F)(F)F)n2)cc1OC 22.1%
COc1ccccc1N1CCN(C(=O)CSc2nc(C)cc(=O)[nH]2)CC1 -4.75%
CCOc1ccccc1CNC(=O)C1=C(C)C(=O)OC12CCN(C(C)=O)CC2 -6.06%
O=C(c1ccc(Br)cc1)N1CCC(c2nc3ccccc3s2)CC1 42.5%
CCOc1ccc(CNC(=O)C(C)n2ncn3cccc3c2=O)cc1 (centres undefined) 2.54%
CCOC(=O)c1[nH]c(C)c(CCC(=O)Nc2ccc(C)cc2Cl)c1C 0.479%
COc1cccc(C(=O)Nc2nc3nc(C)c(Cc4ccccc4)c(=O)n3[nH]2)c1 15.2%
Cc1cccc(N2C(=O)C(CC(=O)Nc3ccccc3)N(C3CCCCC3)C2=O)c1 (centres undefined) -19.5%
CCOC(=O)c1c(C)[nH]c(C)c1S(=O)(=O)N(C)CC(=O)N1CCN(c2cccc(C)c2C)CC1 8.48%
Cn1c(=O)c2[nH]c(Br)nc2n(C)c1=O -2.47%
COC(=O)c1ccc(NC(=O)CC2C(=O)N(c3cccc(C)c3)C(=O)N2Cc2ccco2)cc1 (centres undefined) -24%
CCOC(=O)c1c(C)oc2nc(C)nc(NCCCN3CCN(c4ccccc4OC)CC3)c12 -8.44%
Cc1nn(C)c2c1c(-c1ccccc1)cc(=O)n2Cc1ccc(Br)cc1F -6.89%
COc1ccccc1C(=O)Nc1ccccc1C(=O)OCc1cc(=O)n2c(C)csc2n1 -7.59%
Cc1ccc(OCC(=O)N(Cc2ccc(N(C)C)cc2)CC2CCCO2)cc1C (centres undefined) -11.4%
CCCCOc1ccc(NC(=O)c2cc3c(n(-c4ccc(Cl)cc4)c2=O)CCCC3=O)cc1 1.9%
Cc1ccc(CNC(=O)CCCn2c(=O)c3ccccc3n(Cc3ccccc3Cl)c2=O)cc1 -8.34%
CCCC(=O)c1cc2c(cc1NC(=O)c1ccccc1F)OCCO2 -11.5%
COc1ccc(-c2cc(C(F)(F)F)nc(SCC(=O)N3CCCCC3)n2)cc1 1.41%
O=C(c1cccc([N+](=O)[O-])c1)N1c2nc(-c3ccco3)nn2C2(CCCCC2)[C@@H]2CCCC[C@@H]21 -32.3%
O=C(Cn1c(=O)n(CCCS(=O)(=O)C2CCCCC2)c(=O)c2ccccc21)Nc1ccccc1F -20.4%
Cc1nn2c3c(cnc2c1-c1ccc(F)cc1)C(=O)CC(c1ccccc1)C3 (centres undefined) -5.68%
Cc1cc(C(=O)Nc2cccc(C(F)(F)F)c2)c2c(C)nn(-c3cccc(F)c3)c2n1 10%
COc1cccc(CNC(=O)C2CCCN(S(=O)(=O)c3ccc4c(ccn4C)c3)C2)c1OC (centres undefined) 4.41%
CCCN1CCN(CCNC(=O)Nc2cc(Cl)c(OC)cc2OC)CC1 10.5%
Cc1cc(C)c(-c2csc(-c3cc4ccccc4oc3=O)n2)cc1C -4.05%
O=S(=O)(NCCc1csc2nc(-c3ccc(F)cc3)nn12)c1ccc2c(c1)OCCO2 11.6%
CC(=O)Nc1ccc(NC(=O)CC(C)n2ccc(C)n2)cc1 (centres undefined) 1.42%
COc1ccc(-c2cc(C(=O)Oc3ccc(C#N)cc3)no2)cc1 -7.44%
COc1ccc(CNC(=O)C(CC(C)C)NS(=O)(=O)c2ccc3c(c2)CCN3C(C)=O)cc1 (centres undefined) 22.3%
O=C(NCCOCCn1c(=O)oc2ccccc21)Nc1ccc(F)cc1F 24.4%
COc1ccc(Nc2nnc(-n3nc(C)cc3C)c3ccccc23)cc1 0.996%
CNC(=O)c1c(I)c(NC(=O)CCCCC(=O)Nc2c(I)c(C(=O)O)c(I)c(C(=O)NC)c2I)c(I)c(C(=O)O)c1I 5.06%
CCCc1cc(=O)[nH]c(SCc2nc(-c3ccccc3)no2)n1 -9.96%
O=S1(=O)c2ccccc2N(Cc2ccc(F)cc2)c2ccccc21 -19.3%
CCCSCCCNC(=O)c1sc2nc(C)cc(C)c2c1-n1cccc1 0.876%
COc1cccc(NCc2nnc3n2CCCCC3)c1 9.18%
Cc1ccc(-c2noc(-c3cccnc3N(C)Cc3ccc(Cl)cc3)n2)cc1 -15.7%
COc1cc(Br)cc2cc(S(=O)(=O)c3ccccc3)c(=O)oc12 -4.99%
COc1ccc(CNC(=O)c2cc3c(=O)n(Cc4ccc(OC)cc4)ccc3nc2C)cc1 -10.8%
Cc1cccc(NC(=O)CSc2nc3ccc(NC(=O)CCc4ccccc4)cc3s2)c1 29.9%
